In all, about 3,600 compounds were measured (“viability index relative to DMSO control”: median about 0.81, lowest 2% from about 0.13 on). The list shows a part of the results.
System: Plasmodium falciparum NF54 stage V gametocytes
Assay: viability index relative to DMSO control (fraction); higher = less gametocyte killing
Details: 1.25 µM, incubation time: 72 h
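Further: 384-well serum-free SaLSSA: MitoTracker Red CMXRos staining with saponin lysis, high-content imaging, treated-well particle count divided by plate-mean count of DMSO wells.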

| SMILES | viability index |
| --- | --- |
| COc1ccc(NC(=O)CCn2c(=S)oc3ccccc32)c([N+](=O)[O-])c1 | 1.17 |
| CCOc1ccc(S(=O)(=O)N=C2C=C(Nc3ccc(O)cc3)C(=O)c3ccccc32)cc1 | 0.386 |
| CCOC(=O)N1CCC(NC(=O)CSCc2nc(-c3cccc(OC)c3)oc2C)CC1 | 0.964 |
| CC(=O)C(=NNc1cc(C(F)(F)F)cc(C(F)(F)F)c1)C(C)=O | 0.739 |
| CCCOc1ccc(NC(=O)c2ccco2)cc1 | 0.939 |
| CCCN(CCC)CC(O)COc1ccccc1C(=O)Nc1ccccc1 (stereo not given) | 0.65 |
| Nc1cc(OC(=O)c2ccccc2)nn1S(=O)(=O)c1ccc(Cl)cc1 | 0.964 |
| CCc1noc(C)c1C(=O)NCCN1Cc2ccccc2OC(c2ccsc2)C1 (stereo not given) | 1.47 |
| Cc1cc(N2CCCC2)nc2ccc(NC(=S)NCCCN3CCc4ccccc4C3)cc12 | 1.32 |
| Cc1ccc(-c2nnc(NCc3ccccc3)c3ccccc23)cc1S(=O)(=O)NCC1CCCO1 (stereo not given) | 0.792 |
| CC(C)(C)Cc1ccc(OCCCC(=O)Nc2ccc(Cl)c(N)c2)c(CC(C)(C)C)c1 | 0.947 |
| Cc1ccc(-c2c[n+](-c3ccccc3)c3n2CCCS3)cc1 | 0.925 |
| c1ccc2[nH]c(CN(Cc3nc4ccccc4[nH]3)Cc3nc4ccccc4[nH]3)nc2c1 | 0.949 |
| COc1cccc(-c2ccc(O)c(CN3CCC(C)CC3)c2)n1 | 0.885 |
| Cc1nc([P+](c2ccccc2)(c2ccccc2)c2ccccc2)c(N2CCCCC2)o1 | 0.22 |
| CCOc1ccc(CCNC(=O)c2cccs2)cc1OCC | 0.851 |
| CCOc1ccc(N(C(=O)C2COc3ccccc3O2)C(C(=O)NC2CCCCC2)c2cn(C)nc2C)cc1 (stereo not given) | 0.779 |
| COc1ccc(-c2noc(CNC(=O)c3cccc(I)c3)n2)cc1 | 1.03 |
| COc1cc(N)c(Cl)cc1C(=O)NCC1CCN(c2nc(C)cc(C)n2)CC1 | 0.826 |
| COc1cc(C=NNc2nc3ccccc3[nH]2)cc(OC)c1OC | 1.04 |
| COc1ccc(-c2c[n+](CC(=O)c3ccccc3Cl)c3n2CCC3)cc1 | 1.07 |
| COc1cccc2c1OCC(C(=O)Nc1ccc(C)cc1)=C2 | 0.822 |
| COc1cc(NC(=O)C=Cc2ccccc2Cl)cc(OC)c1OC | 0.444 |

| SMILES | viability index |
| --- | --- |
| CCOC(=O)c1cnc2c(Cl)cccc2c1Nc1cccc(C(C)=O)c1 | 0.936 |
| N#Cc1c(N)nc2sc(C(=O)Nc3ccc(Br)cc3)c(N)c2c1-c1ccccc1 | 0.496 |
| CCOCCCNC(=O)C1CCCN(S(=O)(=O)c2ccc(C)cc2)C1 (stereo not given) | 0.971 |
| Cc1ccccc1Cn1c(N2CCC(C(=O)NCc3ccccn3)CC2)nc2ccccc21 | 0.972 |
| COc1cc(-c2nc(-c3ccccc3)c(-c3cccc(C(F)(F)F)c3)[nH]2)cc(OC)c1O | 0.815 |
| CC(=O)Nc1ccc(S(=O)(=O)N(C)CC(=O)NN=Cc2ccncc2)cc1 | 0.878 |
| CCOC(=O)c1c(C)n(-c2ccccc2)c2ccc(OC(=O)c3ccccc3NC(=O)CC)cc12 | 1.14 |
| COCCN1C(=O)c2[nH]nc(-c3ccccc3O)c2C1c1ccc(SC)cc1 (stereo not given) | 1.33 |
| COC(=O)C1=CN(Cc2ccc(OC)cc2)C=C(C(=O)OC)C1c1cccs1 | 0.734 |
| CCCCNC(=O)N1CCN(C(=O)C(Cc2c[nH]c3ccccc23)NC(=O)Nc2cccc(C#N)c2)CC1C (stereo not given) | 0.613 |
| O=C(Nc1cccc(C(F)(F)F)c1)c1ccc(-c2cccs2)cc1 | 0.859 |
| Cc1c[nH]c(CCNCc2ccc(OCC(O)CN(C)Cc3ccccc3)cc2)n1 (stereo not given) | 0.923 |
| COC(=O)[C@@H]1C[C@H](NC(=O)c2[nH]c3ccc(Cl)cc3c2-c2ccccc2)CN1Cc1cc(OC)cc(OC)c1 | 1.31 |
| O=C(Nc1ccc(-c2nnc(-c3ccc(NC(=O)c4ccccc4[N+](=O)[O-])cc3)o2)cc1)c1ccccc1[N+](=O)[O-] | 0.756 |
| O=C(CCn1c(=O)[nH]c2ccccc21)NCC1Cc2cccc(-c3ccncc3)c2O1 (stereo not given) | 0.894 |
| OC(COc1ccccc1CNCCN1CCCC1)CN1CCc2ccccc2C1 (stereo not given) | 0.971 |
| CCCCNC(=O)c1nn(-c2ccc(OC)cc2)c(=O)c2ccccc12 | 0.946 |
| COc1ccccc1Cn1c(SCC(=O)Nc2cccc(C(F)(F)F)c2)nc2ccc(Br)cc2c1=O | 0.723 |
| CC(=O)OC1CCC2(C)C(CCC3C2CCC2(C)C3CC(O)C2(O)C(C)=O)C1 (stereo not given) | 0.888 |
| CCN(CC)CCN1C(=O)c2ccccc2NC1c1ccc(Br)cc1 (stereo not given) | 0.638 |
| CCOc1ccc(NCc2ccc(O)c3ncccc23)cc1 | 0.949 |
| CCCNC1=C(N(C(C)=O)c2cccc(F)c2)C(=O)c2ccccc2C1=O | 0.0245 |
| CC(C)CCN(CCC(C)C)CC(O)Cn1c2ccc(Br)cc2c2cc(Br)ccc21 (stereo not given) | 0.71 |

| SMILES | viability index |
| --- | --- |
| C=C(Cl)CSc1nnc(CCNC(=O)c2ccc(C)cc2)n1-c1ccc(F)cc1 | 1.12 |
| COc1ccc(C2=C(c3ccc(OC)cc3)C3(c4ccccc4)C(=O)C2(c2ccccc2)C2C(=O)N(c4ccc(C)cc4)C(=O)C23)cc1 (stereo not given) | 0.602 |
| COc1ccc(C2=CC(=Cc3cccc(OC)c3OC)C(=O)O2)cc1OC | 1.06 |
| CCCCN(CC)CCNC(=O)c1cc2c(-c3ccc(Cl)cc3)nn(C)c2s1 | 0.747 |
| COCCOC(=O)C1=C(C)NC2=C(C(=O)CCC2)C1c1ccc(OC)c(OC)c1OC (stereo not given) | 0.698 |
| COc1ccccc1Cn1c(SCc2ccc(Cl)cc2)nc2ccc(Br)cc2c1=O | 0.896 |
| CCc1cc(C(=O)OC)c(NC(=S)NC(C)c2ccncc2)s1 (stereo not given) | 0.635 |
| Cc1cccc(C2Sc3ccccc3N=C3c4ccccc4C(=O)C32)c1 (stereo not given) | 0.538 |
| CCN1CCCC(Nc2ccnc3cc4ccccc4cc23)C1 (stereo not given) | 0.514 |
| COC(=O)C1=C(OC)C(=O)OC12C=CC(=O)C=C2 | 0.144 |
| c1ccc2c(c1)CSc1sccc1C2=C1CCNCC1 | 0.706 |
| CCC(=O)N=c1sc2cc([N+](=O)[O-])ccc2n1CCOC | 0.868 |
| COCCCNc1nc2nonc2nc1N(C)C1CCOCC1 | 0.994 |
| CSc1ccc(NC(=O)N2CCCn3cccc3C2c2ccc(C(F)(F)F)cc2)cc1 (stereo not given) | 0.863 |
| CCc1cccc(NC(=O)CCCn2c(=O)c3cccn3c3ccccc32)c1 | 0.972 |
| Fc1cccc2sc(Nc3nc(-c4ccccn4)cs3)nc12 | 0.322 |
| Brc1ccc2[nH]c3nc4ccccc4nc3c2c1 | 0.699 |
| CCOC(=O)c1cnc2c(C)cccc2c1Nc1cccc(C(C)=O)c1 | 0.865 |
| O=C(C[n+]1cc(-c2ccccc2)n2c1CCC2)c1ccc(C2CCCCC2)cc1 | 0.78 |
| Cc1ccc2[nH]c3c(NCCCN(C)C)ncnc3c2c1 | 0.771 |
| CN(C)c1ccc2c(c1)Sc1cc(N(C)C)ccc1N2C(=O)c1ccccc1 | 1.13 |
| CCOc1ccc2nc(C)cc(Nc3ccc(OCc4ccccc4Cl)cc3)c2c1 | 0.595 |
| CCOC(=O)c1cn(CC)c2cc(N(C)CCc3ccc(OC)c(OC)c3)c(F)cc2c1=O | 0.903 |

| SMILES | viability index |
| --- | --- |
| COCCOC(=O)C1=C(C)NC2=C(C(=O)CC(c3ccc(OC)c(OC)c3)C2)C1c1ccccc1C (stereo not given) | 0.873 |
| COc1ccc(NC(=O)CCCCCn2c(SCC(=O)NCCc3ccc(OC)c(OC)c3)nc3ccsc3c2=O)cc1 | 1.17 |
| c1ccc(CNc2nc(Nc3ccccc3)nc3ccccc23)cc1 | 0.596 |
| Cc1cc2cc(C3C(C#N)=C(N)Oc4c3ccc3ccccc43)c(Cl)nc2cc1Cl (stereo not given) | 0.545 |
| CCN(CC)c1ccc(C=Cc2ccc3ccc(OC)cc3[n+]2CC)cc1 | 0.668 |
| Clc1ccc(-c2csc3ncnc(NCc4ccncc4)c23)cc1 | 0.739 |
| Cc1cc(NC(=O)c2ccc(Br)cc2)no1 | 0.74 |
| CC(C)(C)NS(=O)(=O)c1cc(Cl)ccc1Cl | 0.943 |
| CCOC(=O)c1ccc(NC(=O)c2ccc3nc(NC(=O)c4ccc(C(=O)OC)cc4)sc3c2)cc1 | 0.914 |
| O=[N+]([O-])c1ccc(S(=O)(=O)N2CCN(C(=S)NCC3CCCO3)CC2)cc1 (stereo not given) | 0.471 |
| CCOC(=O)c1c(C)oc2c1c1c(c3ccccc32)OCN(C2CCCC2)C1 | 0.769 |
| CC1=C(C=CC(C)C=NNC(=O)c2ccncc2)C(C)(C)CCC1 (stereo not given) | 0.575 |
| COc1cc(C(=O)NC(c2ccccc2Cl)c2cc(Cl)c3cccnc3c2O)cc(OC)c1OC (stereo not given) | 1.16 |
| CCCCOc1ccc(C(=O)NCCOc2cccc(OC)c2)cc1 | 0.956 |
| COc1ccc(OCC(=O)Nc2c(C)n(C)n(-c3ccccc3)c2=O)cc1 | 1.04 |
| CCCN(CCC)C(=O)Cn1ccc(=N)c2ccccc21 | 0.558 |
| CC(C)C(=O)NC(Nc1ccc([N+](=O)[O-])cc1)C(Cl)(Cl)Cl (stereo not given) | 0.67 |
| O=C1C(Cc2ccccc2)N=C2c3ccccc3N=C(SCc3ccc(Cl)cc3)N12 (stereo not given) | 0.884 |
| CC1=C(C(=O)Nc2ccc(C)cc2C)C(c2cc(Br)ccc2F)n2ncc(C(=O)Nc3ccc(C)cc3)c2N1 (stereo not given) | 0.39 |
| Cc1ccc(NC(=O)c2sc3nc4c(c(-c5cccs5)c3c2N)CCCCC4)cc1 | 0.851 |
| CCOP1(=O)COc2ccccc2OC1 | 1.3 |

Reference: the supplement of paper PMC4723716
